Experimental data: the supplement of paper PMC4967469
By IC50 is meant the dose at which the fit gives 50% viability; fits outside the tested doses are given as limits. AUC is the area under the same curve over the 256-fold range up to the top dose, as a fraction; the more sensitive the line, the further below 1.

Each cell line was assayed with FC(F)c1nc2ccccc2n1-c1nc(N2CCOCC2)nc(N2CCOCC2)n1 [ZSTK474] (assay: Viability of human cancer cell lines after 72 h of drug (GDSC screen)).
Description: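 Human cancer cell lines in 384-well plates, medium with 10% serum, drug for 72 h over a 256-fold dose range (nine 2-fold or five 4-fold steps up to the top dose). Adherent lines were fixed and stained with the nucleic acid dye Syto60, suspension lines read with resazurin; signal relative to control wells, capped at 0 and 100%. One two-parameter sigmoid per drug and line, fitted in a mixed model over all curves with the slope shared within a line.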

Q: For “QGP-1 (pancreas, adherent, top dose 5.12 µM)”, which AUC is on record?
A: 0.893

Q: And the IC50?
A: > 5120 nM

Q: Which results are given for “QIMR-WIL (acute myeloid leukaemia, suspension, top dose 5.12 µM)”?
A: AUC: 0.272; IC50: 73.3 nM

Q: With “RC-K8 (B-cell lymphoma, suspension, top dose 5.12 µM)” as the cell line, how does the AUC read?
A: 0.968

Q: And the IC50?
A: > 5120 nM

Q: Which results are given for “RCC10RGB (kidney, adherent, top dose 10.24 µM)”?
A: AUC: 0.85; IC50: > 10200 nM

Q: “RCC-AB (kidney, adherent, top dose 5.12 µM)” was tested. Which AUC did it give?
A: 0.488

Q: What about the IC50 of the same cell line?
A: 293 nM

Q: What does the source list for “RCC-ER (kidney, adherent, top dose 5.12 µM)”?
A: AUC: 0.733; IC50: 1610 nM

Q: Which results are given for “RCC-FG2 (kidney, adherent, top dose 5.12 µM)”?
A: AUC: 0.643; IC50: 891 nM

Q: Which results are given for “RCC-JF (kidney, adherent, top dose 5.12 µM)”?
A: AUC: 0.522; IC50: 371 nM

Q: “RCC-JW (kidney, adherent, top dose 5.12 µM)” was tested. Which AUC did it give?
A: 0.518

Q: And the IC50?
A: 358 nM

Q: What does the source list for “RCC-MF (kidney, adherent, top dose 5.12 µM)”?
A: AUC: 0.576; IC50: 550 nM

Q: “RCM-1 (large intestine, adherent, top dose 5.12 µM)” was tested. Which AUC did it give?
A: 0.921

Q: What about the IC50 of the same cell line?
A: > 5120 nM

Q: With “RD (rhabdomyosarcoma, adherent, top dose 5.12 µM)” as the cell line, how does the AUC read?
A: 0.799

Q: What about the IC50 of the same cell line?
A: 2720 nM

Q: Which results are given for “REH (B-cell leukaemia, suspension, top dose 5.12 µM)”?
A: AUC: 0.342; IC50: 119 nM

Q: What does the source list for “RERF-GC-1B (stomach, adherent, top dose 5.12 µM)”?
A: AUC: 0.869; IC50: > 5120 nM

Q: With “RERF-LC-KJ (lung adenocarcinoma, adherent, top dose 5.12 µM)” as the cell line, how does the AUC read?
A: 0.811

Q: What about the IC50 of the same cell line?
A: 2820 nM

Q: “RERF-LC-MS (lung adenocarcinoma, adherent, top dose 5.12 µM)” was tested. Which AUC did it give?
A: 0.75

Q: What about the IC50 of the same cell line?
A: 1710 nM

Q: “RERF-LC-Sq1 (lung squamous cell carcinoma, adherent, top dose 5.12 µM)” was tested. Which AUC did it give?
A: 0.805

Q: And the IC50?
A: 4180 nM

Q: For “RF-48 (stomach, adherent, top dose 5.12 µM)”, which AUC is on record?
A: 0.549

Q: And the IC50?
A: 442 nM

Q: Which AUC does the source give for “RH-1 (rhabdomyosarcoma, adherent, top dose 5.12 µM)” here?
A: 0.522

Q: And the IC50?
A: 363 nM

Q: With “RH-18 (rhabdomyosarcoma, adherent, top dose 5.12 µM)” as the cell line, how does the AUC read?
A: 0.604

Q: What about the IC50 of the same cell line?
A: 646 nM

Q: For “RH-41 (rhabdomyosarcoma, adherent, top dose 5.12 µM)”, which AUC is on record?
A: 0.896

Q: And the IC50?
A: 4490 nM

Q: With RKN (ovary, adherent, top dose 5.12 µM) as the cell line, how does the AUC read?
A: 0.631

Q: And the IC50?
A: 750 nM

Q: How did the AUC turn out when “RKO (large intestine, adherent, top dose 5.12 µM)” was run?
A: 0.768

Q: And the IC50?
A: 1780 nM

Q: What does the source list for “RL95-2 (endometrium, adherent, top dose 5.12 µM)”?
A: AUC: 0.97; IC50: > 5120 nM

Q: Which AUC does the source give for “RL (B-cell lymphoma, suspension, top dose 5.12 µM)” here?
A: 0.484

Q: And the IC50?
A: 291 nM

Q: What does the source list for “RMG-I (ovary, adherent, top dose 5.12 µM)”?
A: AUC: 0.599; IC50: 627 nM

Q: “RO82-W-1 (thyroid, adherent, top dose 5.12 µM)” was tested. Which AUC did it give?
A: 0.959

Q: And the IC50?
A: > 5120 nM

Q: Which AUC does the source give for “ROS-50 (B-cell leukaemia, suspension, top dose 5.12 µM)” here?
A: 0.844

Q: What about the IC50 of the same cell line?
A: > 5120 nM

Q: Which results are given for “RPMI-2650 (head and neck, adherent, top dose 5.12 µM)”?
A: AUC: 0.819; IC50: 3220 nM

Q: Which AUC does the source give for “RPMI-6666 (Hodgkin lymphoma, suspension, top dose 5.12 µM)” here?
A: 0.239

Q: What about the IC50 of the same cell line?
A: 47.3 nM

Q: Which AUC does the source give for “RPMI-7951 (melanoma, adherent, top dose 5.12 µM)” here?
A: 0.662

Q: What about the IC50 of the same cell line?
A: 887 nM

Q: What does the source list for “RPMI-8226 (myeloma, suspension, top dose 5.12 µM)”?
A: AUC: 0.716; IC50: 1190 nM

Q: Which results are given for “RPMI-8402 (T-cell lymphoblastic leukaemia, suspension, top dose 5.12 µM)”?
A: AUC: 0.161; IC50: 37.6 nM

Q: For “RPMI-8866 (chronic myeloid leukaemia, suspension, top dose 5.12 µM)”, which AUC is on record?
A: 0.866

Q: What about the IC50 of the same cell line?
A: 4030 nM

Q: For “RS4-11 (leukaemia, suspension, top dose 5.12 µM)”, which AUC is on record?
A: 0.283

Q: What about the IC50 of the same cell line?
A: 83.1 nM

Q: Which AUC does the source give for “RT4 (bladder, adherent, top dose 5.12 µM)” here?
A: 0.816

Q: What about the IC50 of the same cell line?
A: 3020 nM

Q: What does the source list for “RT-112 (bladder, adherent, top dose 5.12 µM)”?
A: AUC: 0.704; IC50: 1270 nM

Q: “RVH-421 (melanoma, adherent, top dose 5.12 µM)” was tested. Which AUC did it give?
A: 0.661

Q: And the IC50?
A: 1060 nM

Q: “RXF393 (kidney, adherent, top dose 5.12 µM)” was tested. Which AUC did it give?
A: 0.723

Q: What about the IC50 of the same cell line?
A: 1790 nM

Q: What does the source list for “Raji (Burkitt lymphoma, suspension, top dose 5.12 µM)”?
A: AUC: 0.935; IC50: > 5120 nM

Q: Which results are given for “Ramos-2G6-4C10 (Burkitt lymphoma, suspension, top dose 5.12 µM)”?
A: AUC: 0.582; IC50: 519 nM

Q: Which AUC does the source give for “SAS (head and neck, adherent, top dose 5.12 µM)” here?
A: 0.815

Q: And the IC50?
A: 3220 nM

Q: Which results are given for “SAT (head and neck, adherent, top dose 5.12 µM)”?
A: AUC: 0.749; IC50: 2530 nM

Q: What does the source list for “SBC-1 (small cell lung carcinoma, suspension, top dose 5.12 µM)”?
A: AUC: 0.92; IC50: > 5120 nM

Q: For “SBC-3 (small cell lung carcinoma, adherent, top dose 5.12 µM)”, which AUC is on record?
A: 0.595

Q: What about the IC50 of the same cell line?
A: 567 nM

Q: For “SBC-5 (small cell lung carcinoma, adherent, top dose 5.12 µM)”, which AUC is on record?
A: 0.983

Q: And the IC50?
A: > 5120 nM

Q: Which AUC does the source give for “SCC90 (head and neck, adherent, top dose 5.12 µM)” here?
A: 0.64

Q: What about the IC50 of the same cell line?
A: 923 nM

Q: “SCC-3 (B-cell lymphoma, suspension, top dose 5.12 µM)” was tested. Which AUC did it give?
A: 0.942

Q: And the IC50?
A: 4740 nM

Q: What does the source list for “SCC-4 (head and neck, adherent, top dose 5.12 µM)”?
A: AUC: 0.909; IC50: > 5120 nM

Q: Which results are given for “SCC-9 (head and neck, adherent, top dose 5.12 µM)”?
A: AUC: 0.47; IC50: 258 nM

Q: How did the AUC turn out when “SCC-15 (head and neck, adherent, top dose 5.12 µM)” was run?
A: 0.702

Q: What about the IC50 of the same cell line?
A: 1450 nM

Q: For “SCC-25 (head and neck, adherent, top dose 5.12 µM)”, which AUC is on record?
A: 0.652

Q: What about the IC50 of the same cell line?
A: 899 nM

Q: What does the source list for “SCH (stomach, adherent, top dose 5.12 µM)”?
A: AUC: 0.969; IC50: > 5120 nM

Q: How did the AUC turn out when “SF126 (glioma, adherent, top dose 5.12 µM)” was run?
A: 0.84

Q: What about the IC50 of the same cell line?
A: 3790 nM

Q: What does the source list for “SF268 (glioma, adherent, top dose 5.12 µM)”?
A: AUC: 0.889; IC50: > 5120 nM

Q: With “SF295 (glioma, adherent, top dose 5.12 µM)” as the cell line, how does the AUC read?
A: 0.763

Q: What about the IC50 of the same cell line?
A: 1980 nM

Q: Which AUC does the source give for “SF539 (glioma, adherent, top dose 5.12 µM)” here?
A: 0.882

Q: What about the IC50 of the same cell line?
A: 4490 nM

Q: For “SH-4 (melanoma, adherent, top dose 5.12 µM)”, which AUC is on record?
A: 0.828

Q: And the IC50?
A: > 5120 nM

Q: “SHP-77 (small cell lung carcinoma, semi-adherent, top dose 5.12 µM)” was tested. Which AUC did it give?
A: 0.969

Q: What about the IC50 of the same cell line?
A: > 5120 nM

Q: For “SIG-M5 (acute myeloid leukaemia, suspension, top dose 5.12 µM)”, which AUC is on record?
A: 0.053

Q: And the IC50?
A: < 20 nM

Q: For “SIMA (neuroblastoma, adherent, top dose 5.12 µM)”, which AUC is on record?
A: 0.912

Q: What about the IC50 of the same cell line?
A: > 5120 nM

Q: For “SISO (cervix, adherent, top dose 5.12 µM)”, which AUC is on record?
A: 0.858

Q: What about the IC50 of the same cell line?
A: 3930 nM

Q: With “SJRH30 (rhabdomyosarcoma, adherent, top dose 5.12 µM)” as the cell line, how does the AUC read?
A: 0.809

Q: What about the IC50 of the same cell line?
A: 2770 nM

Q: What does the source list for “SJSA-1 (bone, adherent, top dose 5.12 µM)”?
A: AUC: 0.842; IC50: 4310 nM

Q: Which AUC does the source give for “SK-CO-1 (large intestine, adherent, top dose 5.12 µM)” here?
A: 0.989

Q: And the IC50?
A: > 5120 nM

Q: Which AUC does the source give for “SK-ES-1 (Ewing sarcoma, semi-adherent, top dose 5.12 µM)” here?
A: 0.69

Q: What about the IC50 of the same cell line?
A: 1140 nM

Q: Which AUC does the source give for “SK-GT-4 (oesophagus, adherent, top dose 5.12 µM)” here?
A: 0.689

Q: What about the IC50 of the same cell line?
A: 1250 nM

Q: For “SK-HEP-1 (liver, adherent, top dose 5.12 µM)”, which AUC is on record?
A: 0.989

Q: What about the IC50 of the same cell line?
A: > 5120 nM

Q: For “SK-LMS-1 (soft tissue, adherent, top dose 5.12 µM)”, which AUC is on record?
A: 0.537

Q: And the IC50?
A: 402 nM

Q: How did the AUC turn out when “SK-LU-1 (lung adenocarcinoma, adherent, top dose 5.12 µM)” was run?
A: 0.83

Q: And the IC50?
A: 4500 nM

Q: With “SK-MEL-1 (melanoma, suspension, top dose 5.12 µM)” as the cell line, how does the AUC read?
A: 0.954

Q: What about the IC50 of the same cell line?
A: > 5120 nM

Q: “SK-MEL-2 (melanoma, adherent, top dose 5.12 µM)” was tested. Which AUC did it give?
A: 0.699

Q: What about the IC50 of the same cell line?
A: 1190 nM

Q: “SK-MEL-3 (melanoma, adherent, top dose 5.12 µM)” was tested. Which AUC did it give?
A: 0.793

Q: What about the IC50 of the same cell line?
A: 2770 nM

Q: Which AUC does the source give for “SK-MEL-5 (melanoma, adherent, top dose 5.12 µM)” here?
A: 0.82

Q: What about the IC50 of the same cell line?
A: 3810 nM

Q: What does the source list for “SK-MEL-24 (melanoma, adherent, top dose 5.12 µM)”?
A: AUC: 0.817; IC50: 3660 nM

Q: Which results are given for “SK-MEL-28 (melanoma, adherent, top dose 5.12 µM)”?
A: AUC: 0.849; IC50: 3740 nM

Q: For “SK-MEL-30 (melanoma, adherent, top dose 5.12 µM)”, which AUC is on record?
A: 0.815

Q: And the IC50?
A: 3010 nM

Q: Which results are given for “SK-MES-1 (lung squamous cell carcinoma, adherent, top dose 5.12 µM)”?
A: AUC: 0.681; IC50: 1080 nM

Q: Which results are given for “SK-MG-1 (glioma, adherent, top dose 5.12 µM)”?
A: AUC: 0.987; IC50: > 5120 nM

Q: With “SK-MM-2 (myeloma, suspension, top dose 5.12 µM)” as the cell line, how does the AUC read?
A: 0.46

Q: And the IC50?
A: 247 nM
